Values quoted from earlier work, collected in patent EP0339681B1, “Antitumor antibiotic substance” (MEIJI SEIKA KAISHA LTD., priority 1988, dated 1989).

Tested on: various tumor cells
Settings: cited from earlier work

COC(=O)C1(C)Nc2c(O)cc3c(c2C1=O)C(CCl)CN3C(=O)c1cc2cc(OC)c(OC)c(OC)c2[nH]1 (centres unmarked) [SF2582A]
cytotoxic effect on various tumor cells: remarkable cytotoxic effect

COC(=O)C1(C)Nc2c(O)cc3c(c2C1=O)CC(Cl)CN3C(=O)c1cc2cc(OC)c(OC)c(OC)c2[nH]1 (centres unmarked) [SF2582B]
cytotoxic effect on various tumor cells: remarkable cytotoxic effect
